Experimental data: PubChem BioAssay AID485294 (National Center for Advancing Translational Sciences (NCATS), 2010)
Several values for one entry are separate records, joined by “and”; a condition that tells them apart may be missing. Identical values can stand only once. Hit rate of the full screen: of about 370,000 compounds, about 150 (0.041%) were called active. The inconclusive results got no clear call from the source; some entries with a clear call stand among them for comparison. The call rests on the fitted dose curve; in most records, active means well fitted inhibition curve with a large enough effect; inconclusive means small, poorly fitted or top-dose-only effect; inactive means flat fitted curve, though single readings scatter. A potency beside an inconclusive call is a rough fit, not a confirmed value.

Molecular target: Beta-lactamase (Escherichia coli (strain K12)) (UniProt P00811)
Sequence of UniProt P00811 (P00811 whole entry, looked up): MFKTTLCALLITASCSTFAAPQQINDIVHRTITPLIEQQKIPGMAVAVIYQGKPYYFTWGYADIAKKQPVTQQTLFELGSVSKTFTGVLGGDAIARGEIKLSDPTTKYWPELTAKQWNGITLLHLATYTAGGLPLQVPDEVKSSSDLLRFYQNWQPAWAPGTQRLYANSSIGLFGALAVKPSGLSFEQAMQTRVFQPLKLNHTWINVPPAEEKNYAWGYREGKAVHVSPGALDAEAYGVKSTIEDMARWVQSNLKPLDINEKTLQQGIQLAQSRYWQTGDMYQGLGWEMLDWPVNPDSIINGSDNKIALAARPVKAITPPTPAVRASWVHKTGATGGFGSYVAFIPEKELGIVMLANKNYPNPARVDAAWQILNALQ
Assay: qHTS Inhibitors of AmpC Beta-Lactamase (assay with detergent); further: nearly all actives have a fitted effect of over 25% in size;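 on activity change, negative = inhibition: 0% = no-compound wells and -100% = no-enzyme wells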
Details: AmpC hydrolysis of nitrocefin, absorbance 480 nm, 0.01% Triton; activity change, negative = inhibition: at 114 µM (top of the series)
How it was run: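 20 mM phosphate pH 7.0 + 0.01% (detergent screen) or 0.0001% Triton X-100; 5.3 nM AmpC reagent; cpd preinc 15 min RT; nitrocefin (800 uM stock) to start; A480 q20 s × 4 min; Activity was normalised to no-enzyme and no-compound control wells.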
Potency means the concentration at half of the fitted maximal effect; tags describe the fitted curve by direction and shape.

Q: `Cc1ccc(NC(=S)Nc2ccc3cn[nH]c3c2)cc1C` was tested. Which “activity change, negative = inhibition” value did it give?
A: inactive: -13.3%

Q: For `COc1ccc(Cc2nnc(NS(=O)(=O)c3ccc(Cl)cc3)s2)cc1OC`, which “activity change, negative = inhibition” value is on record?
A: inactive: 0.907%

Q: `COc1ccccc1OCC(=O)Nc1nonc1NC(=O)COc1ccccc1OC` was tested. Which Potency did it give?
A: inconclusive: 35.5 µM [inhibitor, partial curve]

Q: With `Cc1noc(NS(=O)(=O)c2ccc(NC(=O)C34CC5CC(C3)CC(n3cnc(Br)n3)(C5)C4)cc2)c1C` as the compound, how does the Potency read?
A: inconclusive: 100 µM [inhibitor, single point]

Q: With `Cc1ccc(-c2nc3sc(CCNC(=O)c4ccc(Br)o4)c(C)n3n2)cc1` as the compound, how does the “activity change, negative = inhibition” value read?
A: inactive: -5.92%

Q: With `Cc1cccnc1NC(=O)Nc1ccc(Cl)cc1` as the compound, how does the Potency read?
A: inconclusive: 5.62 µM [inhibitor, full curve, poor fit]

Q: How did the Potency turn out when `O=C(NC1CCCC1)c1cnn2c(C(F)(F)F)cc(-c3ccc4c(c3)OCO4)nc12` was run?
A: inconclusive: 0.631 µM [inhibitor, full curve, poor fit]

Q: `Cc1ccc(C(=O)C2=C(O)C(=O)N(Cc3cccnc3)C2c2ccc(Br)cc2)o1` (stereo unspecified) was tested. Which “activity change, negative = inhibition” value did it give?
A: inactive: 0.925%

Q: How did the “activity change, negative = inhibition” value turn out when `CC(C)CCNC(=O)c1cc(-c2ccco2)nc2ccccc12` was run?
A: inactive: -0.439%

Q: With `O=C(O)C1CCN(C(=O)NC2CCCCC2)CC1` as the compound, how does the Potency read?
A: inconclusive: 0.631 µM [inhibitor, full curve, poor fit]

Q: For `COc1ccc(NC(=O)CNC(=O)C23CC4CC(CC(C4)C2)C3)c(OC)c1`, which Potency is on record?
A: inconclusive: 1 µM [inhibitor, full curve, poor fit]

Q: For `CCOC(=O)c1c(C)nc2sc3c(=O)n(-c4ccc(C(C)=O)cc4)cnc3c2c1-c1ccc(Cl)cc1`, which “activity change, negative = inhibition” value is on record?
A: inactive: -1.3%

Q: How did the Potency turn out when `O=C(O)CCc1nc2cc(Cl)ccc2n(Cc2ccccc2)c1=O` was run?
A: inconclusive: 12.6 µM [inhibitor, full curve, poor fit]

Q: `O=C(CSc1nc2ccccc2c(=O)n1Cc1ccco1)c1ccccc1` was tested. Which “activity change, negative = inhibition” value did it give?
A: inactive: 1.34%

Q: For `C/C(NC(=O)c1cccc(F)c1)=C1/C(=O)C[C@@H]2[C@H]1C2(C)C`, which Potency is on record?
A: inconclusive: 0.631 µM [inhibitor, full curve, poor fit]

Q: For `Cc1noc(C)c1C(=O)N1CCCC(N2CCN(c3cccc(C(F)(F)F)c3)CC2)C1` (stereo unspecified), which Potency is on record?
A: inconclusive: 0.708 µM [inhibitor, full curve]

Q: `CCOc1ccccc1C1C(C(=O)N2CCCCC2)=C(C)Nc2nc3ccccc3n21` (stereo unspecified) was tested. Which “activity change, negative = inhibition” value did it give?
A: inactive: 26%

Q: How did the “activity change, negative = inhibition” value turn out when `CCOc1ccccc1NC(=O)c1nn(-c2ccc(C)cc2)c(=O)n(C)c1=O` was run?
A: inactive: -6.46%

Q: With `Cc1ccc(NC(=O)CCN2C(=O)c3ccccc3S2(=O)=O)cc1F` as the compound, how does the Potency read?
A: inconclusive: 39.8 µM [inhibitor, full curve, poor fit]

Q: Which “activity change, negative = inhibition” value does the source give for `CCCCNC(=S)N(C)/N=C/c1ccc(OCC(=O)Nc2c(C)cc(C)cc2C)c(OC)c1` here?
A: inactive: -8.02%

Q: With `O=S(=O)(Nc1cccc(-n2cnnn2)c1)c1ccc(F)cc1` as the compound, how does the Potency read?
A: inconclusive: 112 µM [inhibitor, partial curve, poor fit]

Q: `Cc1ccc(C)c(OCC(=O)N/N=C/c2ccsc2)c1` was tested. Which Potency did it give?
A: inconclusive: 11.2 µM [inhibitor, full curve, poor fit]

Q: For `Cc1ccc(C)c(N(C(=O)Cn2nnc(-c3cccs3)n2)C(C(=O)NC2CC2)c2ccc(C)o2)c1` (stereo unspecified), which Potency is on record?
A: inconclusive: 2.51 µM [inhibitor, full curve, poor fit]

Q: With `Cc1c(NC(=O)C2CCCN2S(=O)(=O)c2cccc3nsnc23)cccc1C(=O)O` (stereo unspecified) as the compound, how does the Potency read?
A: inconclusive: 0.631 µM [inhibitor, full curve, poor fit]

Q: For `CC1COc2c(N3CCN(C)CC3)c(F)cc3c(=O)c(C(=O)O)cn1c23` (stereo unspecified), which “activity change, negative = inhibition” value is on record?
A: inactive: -5.17%

Q: Which Potency does the source give for `CC(C)c1ccc(S(=O)(=O)N2CCC(C(=O)N3CCC3)CC2)cc1` here?
A: inconclusive: 39.8 µM [inhibitor, full curve, poor fit]

Q: How did the Potency turn out when `CC1CC/C(=C\c2ccc3c(c2)OCO3)C(=O)/C1=C/c1ccc2c(c1)OCO2` (stereo unspecified) was run?
A: inconclusive: 44.7 µM [inhibitor, partial curve, poor fit]

Q: How did the Potency turn out when `CN1C(=O)/C(=C/c2ccc(OCc3ccc(C(=O)O)cc3)c(Cl)c2)NC1=S` was run?
A: inconclusive: 1.12 µM [inhibitor, full curve]

Q: Which Potency does the source give for `CC(=O)c1cccc(NC(=O)C(C)OC(=O)c2cc(C)oc2C)c1` (stereo unspecified) here?
A: inconclusive: 89.1 µM [inhibitor, single point]

Q: For `Cc1cc(NC(=O)CSc2nnc(CNC(=O)c3ccc(C(C)(C)C)cc3)o2)no1`, which Potency is on record?
A: inconclusive: 1.12 µM [inhibitor, full curve, poor fit]

Q: How did the Potency turn out when `C=CCN1C(=O)/C(=C/c2ccc(OCC(=O)O)cc2)S/C1=N/c1nccs1` was run?
A: inconclusive: 112 µM [inhibitor, partial curve, poor fit]

Q: How did the Potency turn out when `COC(=O)CSc1nc(NCC(C)C)nc(N2CCOCC2)n1` was run?
A: inconclusive: 89.1 µM [inhibitor, single point]

Q: For `CS(=O)(=O)N(CC(=O)NCc1ccncc1)c1cc(Cl)cc(Cl)c1`, which Potency is on record?
A: inconclusive: 0.562 µM [inhibitor, full curve, poor fit]

Q: `Cc1c(-c2nsc(NC(=O)c3ccccc3)n2)nnn1-c1ccc(C(F)(F)F)c(Cl)c1` was tested. Which “activity change, negative = inhibition” value did it give?
A: inactive: 4.04%

Q: How did the Potency turn out when `CCCCS(=O)CC(CS(=O)CCCC)OC(=O)c1ccc(C)cc1` (stereo unspecified) was run?
A: inconclusive: 4.47 µM [inhibitor, full curve, poor fit]

Q: For `CS(=O)(=O)N(CC(=O)N1CCN(c2ccccc2)CC1)c1cccc(Br)c1`, which Potency is on record?
A: inconclusive: 5.01 µM [inhibitor, full curve, poor fit]

Q: `CCc1cc2c(SCC(=O)c3ccc(C)cc3)ncnc2s1` was tested. Which Potency did it give?
A: inconclusive: 100 µM [inhibitor, single point]

Q: Which “activity change, negative = inhibition” value does the source give for `O=C(C[n+]1cccc(CNC(=O)c2ccc(OC(F)F)cc2)c1)Nc1ccc(SC(F)F)cc1` here?
A: inactive: -1.69%

Q: Which Potency does the source give for `Cc1cc(=S)cc(C)n1CCCn1ccnc1` here?
A: inconclusive: 3.16 µM [inhibitor, full curve, poor fit]

Q: For `COc1ccc(-c2n[nH]c(=S)n2-c2ccc(C)cc2C)cc1`, which Potency is on record?
A: inconclusive: 0.794 µM [inhibitor, full curve, poor fit]

Q: `O=C(Cn1c(C(=O)NCc2ccco2)cc2sccc21)c1ccccc1` was tested. Which Potency did it give?
A: inconclusive: 100 µM [inhibitor, single point]

Q: With `O=C1c2oc3ccccc3c(=O)c2C(c2ccccc2)N1Cc1ccc2c(c1)OCO2` (stereo unspecified) as the compound, how does the “activity change, negative = inhibition” value read?
A: inactive: 2.11%

Q: `C=CCOc1ccc(CN(C)c2ccc(S(=O)(=O)N3CCN(C)CC3)cc2[N+](=O)[O-])cc1` was tested. Which “activity change, negative = inhibition” value did it give?
A: inactive: 4.98%

Q: For `CCc1cccc(CC)c1NC(=O)c1cc(CN2C(=O)c3ccccc3C2=O)ccc1OC`, which Potency is on record?
A: inconclusive: 1.58 µM [inhibitor, full curve, poor fit]

Q: `O=S(=O)(c1ccc(Cl)cc1)N1CN(CC2CCCO2)c2nc3ccccc3nc21` (stereo unspecified) was tested. Which Potency did it give?
A: inconclusive: 2.24 µM [inhibitor, full curve, poor fit]

Q: For `CCOC(=O)Nc1ccc(NCc2ccc(F)cc2)nc1N`, which Potency is on record?
A: inconclusive: 6.31 µM [inhibitor, full curve]

Q: With `COc1ccc(C(=O)NC(C)Cc2cnccn2)cc1OC1CCN(C(C)C)CC1` (stereo unspecified) as the compound, how does the Potency read?
A: inconclusive: 31.6 µM [inhibitor, partial curve]

Q: How did the “activity change, negative = inhibition” value turn out when `Cc1csc2nc(-c3cccc(NC(=O)C(C)C)c3)cn12` was run?
A: inactive: 22.8%

Q: With `Cc1nc(NC(=O)COC(=O)CCS(=O)(=O)c2ccccc2Cl)c(Cl)cc1Cl` as the compound, how does the Potency read?
A: inconclusive: 89.1 µM [inhibitor, single point]

Q: Which Potency does the source give for `Cc1ccc2ncnc(Nc3ccc(C)c(C)c3)c2c1` here?
A: inconclusive: 1.78 µM [inhibitor, full curve, poor fit]

Q: `Cn1c(Cc2ccccc2)nnc1SCC(=O)Nc1ccc2c(c1)OCCO2` was tested. Which Potency did it give?
A: inconclusive: 0.631 µM [inhibitor, full curve, poor fit]

Q: `COc1ccc(C2CC(=O)Nc3c2c(C)nn3-c2nncc(-c3ccc(C)cc3)n2)c(OC)c1OC` (stereo unspecified) was tested. Which Potency did it give?
A: inconclusive: 0.631 µM [inhibitor, full curve, poor fit]

Q: Which Potency does the source give for `COc1cc(CN2CCN(c3cccc(C)c3C)CC2)cc(Br)c1O` here?
A: inconclusive: 89.1 µM [inhibitor, partial curve, poor fit]

Q: For `Cc1c(/C=N\NC(=O)c2c[nH]c3ccccc23)cnn1C`, which Potency is on record?
A: inconclusive: 44.7 µM [inhibitor, partial curve]

Q: `CC(=O)Nc1ccccc1C(=O)N1CCN(Cc2ccccc2)CC1` was tested. Which Potency did it give?
A: inconclusive: 100 µM [inhibitor, single point]

Q: For `O=[N+]([O-])c1ccc(OCCCCCN2CCOCC2)cc1`, which Potency is on record?
A: inconclusive: 0.631 µM [inhibitor, full curve, poor fit]

Q: With `O=C(OCC(=O)c1ccc(S(=O)(=O)N2CCCC2)cc1)C1=COCCO1` as the compound, how does the Potency read?
A: inconclusive: 50.1 µM [inhibitor, full curve, poor fit]

Q: With `COCCn1c(C)cc(C(=O)COC(=O)c2[nH]c(C)c(C(C)=O)c2C)c1C` as the compound, how does the “activity change, negative = inhibition” value read?
A: inactive: 2.27%

Q: How did the “activity change, negative = inhibition” value turn out when `CCCc1c(C(=O)NNc2ccccc2OC)cnn1-c1ccccc1` was run?
A: inactive: -2.48%

Q: Which “activity change, negative = inhibition” value does the source give for `Cc1nc2cccnc2n1-c1cccc(C(=O)N2CCN(c3ccc(Cl)cc3)CC2)c1` here?
A: inactive: -0.558%

Q: `CCCOc1ccc(OCCSc2ncccn2)cc1` was tested. Which “activity change, negative = inhibition” value did it give?
A: inactive: 1.53%

Q: For `C[C@H]1O[C@H]1P(=O)(O)O`, which Potency is on record?
A: inconclusive: 2.51 µM [inhibitor, full curve, poor fit] and inconclusive: 316 nM [inhibitor, full curve, poor fit]

Q: How did the “activity change, negative = inhibition” value turn out when `Cc1ccc(C2(c3ccccc3)NC(=O)N(CC(=O)NC3CCCCC3)C2=O)cc1C` (stereo unspecified) was run?
A: inactive: -16.1%

Q: Which Potency does the source give for `CCOc1ccc2[nH]c(C)cc(=O)c2c1` here?
A: inconclusive: 4.47 µM [inhibitor, full curve, poor fit]

Q: How did the Potency turn out when `CCc1cccc(NC(=O)Cc2cn(C)c3ccccc23)c1` was run?
A: inconclusive: 100 µM [inhibitor, single point]

Q: `S=C(Nc1cccnc1)NC1CCCC1` was tested. Which Potency did it give?
A: inconclusive: 15.8 µM [inhibitor, single point]
